# According to the antibiotic and cytotoxicity screens of Wong et al. (2023):
# Some of the results follow.
# Experiments:
# [1] = test system: HSkMC (human skeletal muscle cells); assay: cytotoxicity call (relative viability < 0.9); conditions: 10 µM
# [2] = test system: HepG2; assay: cytotoxicity call (relative viability < 0.9); conditions: 10 µM
# [3] = test system: S. aureus RN4220; assay: growth inhibition call (relative growth <= 0.2); conditions: 50 µM
Structure (SMILES),cytotoxicity call [1],cytotoxicity call [2],growth inhibition call [3]
Cc1c(Cl)cccc1Nc1ccccc1C(=O)O,inactive,inactive,inactive
O=C(CCCCCC(=O)N/N=C/[C@@H](O)[C@H](O)[C@H](O)CO)NO,inactive,inactive,inactive
CO[C@@H]1CN(C)C(=O)c2ccc(NC(=O)Nc3ccc(Cl)cc3)cc2OC[C@@H](C)N(C(=O)Nc2c(C)noc2C)C[C@H]1C,inactive,inactive,inactive
C[C@@H]1CN([C@@H](C)CO)C(=O)c2cc(NC(=O)CCCCCC(=O)Nc3ccccc3N)ccc2O[C@@H]1CN(C)Cc1ccc(-c2ccccc2)cc1,inactive,active,inactive
COc1ccc(NC(=O)N(C)C[C@@H]2OCc3cnnn3CCCC(=O)N([C@@H](C)CO)C[C@@H]2C)c(OC)c1,inactive,inactive,inactive
NS(=O)(=O)c1cc(C2(O)NC(=O)c3ccccc32)ccc1Cl (stereo not given),inactive,inactive,inactive
CC(C)NC(=O)Nc1ccc2c(c1)C(=O)N([C@@H](C)CO)C[C@H](C)[C@@H](CN(C)CC1CCCCC1)OCCCC[C@H](C)O2,inactive,inactive,inactive
C[C@@H]1CN([C@@H](C)CO)C(=O)c2cc(NC(=O)Nc3ccccc3)ccc2O[C@@H](C)CCCCO[C@H]1CN(C)C(=O)CCC(F)(F)F,inactive,inactive,inactive
Nc1nc(O[C@@H](c2ccc(-c3cccc(F)c3)cc2)C(F)(F)F)cc(-c2ccc(C[C@H](N)C(=O)O)cc2)n1,inactive,inactive,inactive
CN(C)CCCNC(=O)C[C@H]1CC[C@H]2[C@@H](COC[C@@H](O)CN2S(=O)(=O)c2ccccc2)O1,inactive,inactive,inactive
O=c1[nH]c2c(=O)nc[nH]c2nc1-c1ccccc1,inactive,inactive,inactive
C[C@@H]1CN([C@@H](C)CO)S(=O)(=O)c2ccc(C#CC3(O)CCCC3)cc2O[C@H]1CN(C)C(=O)Nc1ccc(F)cc1,inactive,inactive,inactive
C[C@@H]1CN([C@H](C)CO)C(=O)Cc2cc(NC(=O)CCCCCC(=O)Nc3ccccc3N)ccc2O[C@H]1CN(C)S(=O)(=O)c1cn(C)cn1,inactive,inactive,inactive
NC[C@H](c1ccccc1)N1CCOCC1,inactive,inactive,inactive
C[C@@H]1CCCCO[C@@H](CN(C)S(=O)(=O)c2cccs2)[C@@H](C)CN([C@H](C)CO)C(=O)c2cc(NS(C)(=O)=O)ccc2O1,inactive,inactive,inactive
CN1C(=O)c2cc(NC(=O)C3CCOCC3)ccc2OC[C@H]2O[C@H](CC(=O)NCCc3ccncc3)CC[C@@H]21,inactive,inactive,inactive
C[C@H](CO)N1C[C@H](C)[C@H](CN(C)S(=O)(=O)c2ccccc2)Oc2cc(Br)ccc2S1(=O)=O,inactive,inactive,inactive
CCN1CCCC(OC(=O)C(c2ccccc2)c2ccccc2)C1.Cl (stereo not given),inactive,inactive,inactive

Structure (SMILES),cytotoxicity call [1],cytotoxicity call [2],growth inhibition call [3]
Cc1cc(C(=O)Nc2cccc3c2O[C@H](CN(C)S(=O)(=O)c2ccc(Cl)cc2)[C@H](C)CN([C@H](C)CO)C3=O)n(C)n1,inactive,inactive,inactive
Cc1ccc(S(=O)(=O)N2C[C@H](O)COC[C@H]3O[C@H](CC(=O)NCCCN(C)C)CC[C@@H]32)cc1,inactive,inactive,inactive
C[C@H](CO)N1C[C@H](C)[C@@H](CN(C)C(=O)Nc2ccc(F)cc2)OCc2ccccc2-c2c(n(C)c3ccccc23)C1=O,inactive,inactive,inactive
C[C@H](CO)N1C[C@H](C)[C@@H](CN(C)C(=O)c2ccccc2)OCCCC[C@H](C)Oc2ccc(NC(=O)CCC(F)(F)F)cc2C1=O,inactive,inactive,inactive
CNCCC(Oc1cccc2ccccc12)c1cccs1.Cl (stereo not given),inactive,active,inactive
CN(C)CCCNC(=O)C[C@@H]1CC[C@H]2[C@@H](COC[C@H](O)CN2S(=O)(=O)c2ccccc2)O1,inactive,inactive,inactive
COc1ccc(CN(C)C[C@H]2Oc3c(NS(C)(=O)=O)cccc3C(=O)N([C@@H](C)CO)C[C@@H]2C)cc1,inactive,inactive,inactive
COc1ccc(NC(=O)Nc2ccc3c(c2)C(=O)N([C@H](C)CO)C[C@H](C)[C@@H](CN(C)CC2CC2)OCCCC[C@H](C)O3)cc1,inactive,inactive,inactive
C[C@H]1CN([C@@H](C)CO)C(=O)Cc2cc(NS(C)(=O)=O)ccc2O[C@H]1CN(C)Cc1ccc2c(c1)OCO2,inactive,inactive,inactive
C=C1C(=O)OC2C1CCC(C)=CCCC1(C)OC21 (stereo not given),active,active,inactive
O=c1occ(CO)c(O)c1CN1CCCCC1,inactive,inactive,inactive
COc1cccc(NC(=O)N(C)C[C@H]2Oc3ncc(C#Cc4ccncc4)cc3C(=O)N([C@H](C)CO)C[C@@H]2C)c1,inactive,inactive,inactive
COc1ccc(C2CC(=O)c3c(O)cc(O)cc3O2)cc1O (stereo not given),inactive,inactive,inactive
CC(=O)O[C@@H]1C[C@H]2[C@@]3(C)CC[C@@H](OC(=O)CC(=O)O)C(C)(C)[C@@H]3CC[C@@]2(C)[C@]2(C)CC[C@](O)([C@]3(C)CC[C@H](C(C)(C)O)O3)[C@@H]12,inactive,inactive,inactive
CC(C)NC(=O)N(C)C[C@H]1Oc2ccc(NC(=O)C3CCCCC3)cc2C(=O)N([C@@H](C)CO)C[C@H]1C,inactive,inactive,inactive
COc1ccc(S(=O)(=O)N(C)C[C@H]2OCCCC[C@@H](C)Oc3ccc(NC(=O)Nc4ccccc4)cc3C(=O)N([C@H](C)CO)C[C@@H]2C)cc1,inactive,inactive,inactive
NC(=O)CC1=NC(=O)CS1,inactive,inactive,inactive
